Data on 20 variants can be found in the RNAGym collection of RNA variant scans (doi:10.7554/elife.90254).

Read counts are not given, so values of variants with three or more changes are uncertain.

B1: LINE1-full (parent)
chain: UACGUAGGUGGUUUUCCCCUGAUAGUGCUAAGGGGGCCUGGAAGUUUGGACUGGGCAGAGCUCAACACAGCGUGGCAAAGUGGCUGUGGCUAGACUGCCUCUCUGGAUUCCUCGUCACUCAGCAGGGCAUCUCUGAGAGAAAUGCC

In the data set the parent is B1. Kind of data set: self-cleavage, relative activity (ratio to wild type); higher = more cleavage; in vitro, sequencing; the parent is a self-cleaving ribozyme.
Take UACGUAGGUGGUUUUCCCCUGAUAGUGCUCAGGGGGCCUGGAAGCUUGGACCGGGCAGAGCUCAACACAGCGUGGCAAAGUGGCUGUGGCUACACUGCCUCUCUGGAUUCCUCGUCACUCAGCAGGGCAUCUCUGAGAGAAAUGCC [A30C U45C U52C G93C]: the self-cleavage was determined as 0.

As for UACGUAGGUGGUUUUCCCCUGAUAGUGCUGAGGGGGCCUGGAAGUUUGGACUGGGCAGGGCUCAACACAGCGUGGCAAAGUGGCUGUGGCUAGACUGCCUCUCUGGAUUCCUCGUCACUCAGCAGGGCGUCUCUGAGAGAAAUGCC [A30G A59G A129G], the self-cleavage was 0.8.

As to UACGUAGGUGGUUUUCCCCUGAUAGUGCCAAGGGGGCCUGGAAGUUUGGACUGGGCAGAGCUCAACACAGCGUGGCAAAGUGGCUGUGGCUAGACUGCCUCCCUGGAUUCCUCGUCACUCAGCAGGGCAUCUCUGAGAGAAGUGCC [U29C U102C A142G], the self-cleavage amounted to 0.88.

As for UACGUAGGUGGUUUUCCCCUGAUAGUGCCAAGGGGGCCUGGAAGUUUGGACUGGGCAGAGCUCAACACAGCGUGGCAAAGUGGCCGUGGCUAGACUGCCUCUCUGGGUUCCUCAUCACUCAGCAGGGUAUCUCUGAGGGAAAUGCC [U29C U85C A107G G114A C128U A138G], the self-cleavage was 0.43.

Turning to UACGUAGGUGGUUUUCCCCUGAUAGUGCGAAGGUGGCCUGGAAGUCUGGACUGGGCAGAGCUCAACACAGCGUGGCAAAGUGGCUGUGACUAGACUGCCUCUCUGGAUUCCUCGUCACUCAGCAGGGCAUCUCCGAGAGAAAUGCC [U29G G34U U46C G89A U134C], the self-cleavage came out at 0.11.

As for UACGUAGGUGGUUUUCCCCUGAUAGUGCCAAGGGGGCCUGGAAGUUUGGACUGGGCAGAGCUCAACACAGCGUGGCAAAGUGGCUGUGGCUAGACUGCCUCUCAGGAUUCCUCGUCACUCAGCAGGGCAUCUCUGAGAGAAACGCC [U29C U104A U143C], the self-cleavage was 1.29.

With UACGUAGGUGGUUUUCCCCUGAUAGUGCGAAGGGGGCCUGGGAGUCUGGACUGGGCAGAGCUCAACACAGCGUGGCAAAGUGGCUGUGGCUAGACUGCCUCUCUGGAUUCCUCGUCACUCAGCAGGGCAUCUCUGAGAGAAAUGCC [U29G A42G U46C], the self-cleavage stood at 1.31.

As for UACGUAGGUGGUUUUCCCCUGAUAGUGCCAAGGGGGCCUGGAAGUUUGGACUGGGCAGAGCUCAACACAGCGUGGCAAAGUGGCUGUGGCCAGACUGCCUCACUGGAUUCCUCGUCACUCAGCAGGGCAUCUCUGAGAGAAAUGCC [U29C U91C U102A], the self-cleavage came out at 1.84.

As for UACGUAGGUGGUUUUCCCCUGAUAGUGCUCAGGGGGCCUGGAAGUUUGGACUGGGCUGAGCUCAGCUCAGCGUGGCAAAGUGGCUGUGGCUAGACUGCCUCUCCGGAUUCCUCGUCACUCAGCAGGGCAUCUCUGAGAGAAAUGCC [A30C A57U A65G A67U U104C], the self-cleavage worked out at 0.

For the variant UACGUAGGUGGUUUUCCCCUGAUAGUGCUCAGGGGGCCUGGAGGUUUGGACUGGGCAGAGCUCAACACAGCGUGGCAAAGUGGCUGUGGCUAGACUGCCUCUCUGGAUUCCUCGUCACUCAGUAGGGCAUCUCUGAGAGAAAUGCC [A30C A43G C123U], the self-cleavage came out at 2.21.

Consider UACGUAGGUGGUUUUCCCCUGAUAGUGCUGAGGGGGCCUGGAAGUUUGGUCUGGGCAGAGCUCAACACAGCGUGGCAAAGUGGCUGUGGCUGGACUGCCUCUCUGGAUUCCUCGUCACUCAGCAGGGCAUCUCUGAGAGAAAUGCC [A30G A50U A92G], for which the self-cleavage amounted to 0.

With UACGUAGGUGGUUUUCCCCUGAUAGUGCUCAGGGGGCCAGGAAGUUUGGACUGGGCAGAGCUCAACACAGCGUGGCAAAGUGGCUGUGGCUAGACUGCCUCUCUGGAUUCCUCGUCUCUCAGCAGGGCAUCUCUGAGAGAAAUGCC [A30C U39A A117U], the self-cleavage was found to be 1.62.

Turning to UACGUAGGUGGUUUUCCCCUGAUAGUGCUGAGGGGGCCUGGGAGUUUGGACUGGGCAGAGCUCAACACAGCGUGGCAAAGUGGCUGUGGCUAGACUGCCUCUCUGGACUCCUCGUCACUCAGCAGGGCAUCUCUGAGAGAAAUGCC [A30G A42G U108C], the self-cleavage came to 0.77.

On to UACGUAGGUGGUUUUCCCCUGAUAGUGCGAAGGGGGCCUGGAAGUUUGGACUGGGCAGAGCUCAACACAGCGUGGGAAAGUGGCUGUGGCUAGACUGCCUCUCUGGAUUCCUCGUCGCUCAGCAGGGCAUCUCUGAGAGAAAUGCC [U29G C76G A117G], for which the self-cleavage turned out to be 1.51.

Take UACGUAGGUGGUUUUCCCCUGAUAGUGCGAGGGGGGCCUGGAAGUUUGGACUGGGCAGAGCUCAACACAGCGUGGCUAAGUGGCUGUGGCUAGACUGCCUCUCUGGAUUCCACGUCACUCAGCAGGGCAUCUCUGAGAGAAAUGCC [U29G A31G A77U U112A]: the self-cleavage worked out at 1.7.

For the variant UACGUAGGUGGUUUUCCCCUGAUAGUGCCAAGGGGGCCUGGAAGUUUGGACUGGGCAGAGCUCAACACAGCGUGGCAAAGUGGCUGUGGCUAGACUGCCUCCCAGGAUUCCUCGUCACUCAGCAGGGCAUCUCUGAGAGAAGUGCC [U29C U102C U104A A142G], the self-cleavage was 0.44.

UACGUAGGUGGUUUUCCCCUGAUAGUGCCAAGGGGGCCUGGAAGUUUGGACUGGGCAGAGCUCAACACAGCGUGGCAAAGUGGCCGUGGCUAGACCGCCUCUCUGGAUUCCUCGUCACUCAGCAGGGCAUCUCUGAGAGAAAUGCC [U29C U85C U96C]: the self-cleavage worked out at 0.56.

UACGUAGGUGGUUUUCCCCUGAUAGUGCUCAGGGGGCCUGGAAGUUUGGGCUGGGCAGAGCUCAGCACAGCGUGGCAAAGUGGCUGAGGCUAGACUGCCUCUCUGGAUUCCUCGUCACUCAGCAGGGCAUCUCUGAGAGAAAUGCC [A30C A50G A65G U87A]: the self-cleavage came to 0.22.

For UACGUAGGUGGUUUUCCCCUGAUAGUGCGAAGGGGGCCUGGAAGUUUAGACUGGGCAGAGCUCAACACAGCGUGGCAAAGUGGCUGUGGCUAGACUGCCUCUCUGGAUUCCUCGUCACUCUGCAGGGCAUCUCUGAGAGAAAUGCC [U29G G48A A121U], the self-cleavage is 0.98.

In the case of UACGUAGGUGGUUUUCCCCUGAUAGUGCCAAGGGGGCCUGGAAGUUUGGACUGGGCAGAGCUCAACACAGCGUGGCAAAGUGGCAGUGGCUAGACUGCCCCUCUGGAUUCCUCGUCACUCAGCAGGGCAUCUCUGAGAGAAAUGCC [U29C U85A U100C], the self-cleavage was 0.26.
